Screen size: about 48,000 compounds; about 550 (1.1%) were called active. Inconclusive results (about 4%) are left out. Rule as the data show it: active = potency below about 15 µM; inconclusive = mostly about 16 µM to 33 µM; inactive = weaker than that. The list shows a part of the results.
target: Lysosomal acid glucosylceramidase (Homo sapiens) (UniProt P04062); test: Glucocerebrosidase; conditions: purified enzyme, resorufin glucoside fluorescence (screen aimed at inhibitors), 20 min; series mostly up to 77 µM;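 also: the screen sought inhibitors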
In short: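 Wild-type enzyme at 0.2 nM final in 50mM citric acid/KH2PO4, 10mM sodium taurocholate, 0.01% tween-20, pH 5.9, with resorufin beta-D-glucopyranoside at 30 uM final. Compounds titrated, 20 min at RT, red fluorescence read; AC50 from titration.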
Potency is read from the fitted curve at half-maximal effect.

Sequence of UniProt P04062 (P04062 whole entry, looked up): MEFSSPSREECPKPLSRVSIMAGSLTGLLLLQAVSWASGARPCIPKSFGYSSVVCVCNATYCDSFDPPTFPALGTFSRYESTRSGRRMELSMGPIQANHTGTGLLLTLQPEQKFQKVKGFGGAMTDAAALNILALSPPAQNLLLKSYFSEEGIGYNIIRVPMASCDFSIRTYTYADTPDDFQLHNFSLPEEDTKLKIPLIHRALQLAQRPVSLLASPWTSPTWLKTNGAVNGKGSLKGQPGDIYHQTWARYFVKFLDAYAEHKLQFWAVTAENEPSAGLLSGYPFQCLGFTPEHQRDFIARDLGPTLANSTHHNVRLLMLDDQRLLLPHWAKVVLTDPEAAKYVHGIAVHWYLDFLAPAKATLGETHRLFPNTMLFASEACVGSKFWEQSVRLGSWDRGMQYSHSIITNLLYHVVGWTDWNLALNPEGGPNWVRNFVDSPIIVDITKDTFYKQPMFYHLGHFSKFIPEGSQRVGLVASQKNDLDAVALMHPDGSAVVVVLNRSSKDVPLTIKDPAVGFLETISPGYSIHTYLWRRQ

Potency, inactive:
Cc1ccc(NC(=O)COC(=O)Cn2c(C)csc2=O)cc1 > 76.9 µM
CCc1c(C)c2ccc(OCC(N)=O)cc2oc1=O > 76.9 µM
CC1CN(S(=O)(=O)c2cccc(C(=O)NCc3ccc4c(c3)OCO4)c2)CC(C)O1 (stereo not given) > 76.9 µM
CC(=O)Cc1nsc(NC(=O)c2ccc(-c3cc(C(F)(F)F)ccc3Cl)o2)n1 > 76.9 µM
CCC1=NC(c2ccc(OC)cc2OC)N(O)C1(C)C (stereo not given) > 76.9 µM
CC(=O)C(C(C)=O)c1c(Cl)c(O)c(O)c2c(C(=O)c3ccccc3)coc12 > 76.9 µM
Cc1ccc2c(c1)CCCN2C(=O)Nc1ccc2c(c1)OCO2 > 76.9 µM
COC(=O)c1ccc(CSc2nnc(CNC(=O)c3cccs3)o2)o1 > 76.9 µM
O=C(O)C1C2C=CC(C2)C1C(=O)Nc1ccc2c(c1)OCCO2 (stereo not given) > 76.9 µM
COC(=O)c1ccc2c(=O)n(CCCN3CCCC3=O)c(=S)[nH]c2c1 > 76.9 µM
CS(=O)(=O)N1CCC(C(=O)NCCC2=CCCCC2)CC1 > 76.9 µM
CC(=O)N1CC2(C)CN(C(C)=O)CC(C)(C1)C2O (stereo not given) > 76.9 µM
CCNS(=O)(=O)c1ccc(NC(=O)c2cc(C(F)(F)F)nn2C)cc1 > 76.9 µM
COC(=O)C1C2C=CC3(CN(CC4CCCO4)C(=O)C13)O2 (stereo not given) > 76.9 µM
c1ccc(CNc2ccc3c(c2)ncn3C2CCCCC2)nc1 > 76.9 µM
O=C(Nc1cnc2ccccc2c1)c1ccco1 > 76.9 µM
CCOc1cc2[nH]c(=O)n(CCC(=O)NCCc3ccc(OC)c(OC)c3)c(=O)c2cc1OCC > 76.9 µM
O=C(NCC(c1cccnc1)N1CCN(c2ccc(F)cc2)CC1)c1ccccc1 (stereo not given) > 76.9 µM
NC(=O)Cc1c[nH]c2cccc(O)c12 > 76.9 µM
CCOC(=O)c1sc(C)nc1C1CCN(C(=O)OCC)CC1 > 76.9 µM
O=C(CCS(=O)(=O)Cc1ccccc1)Nc1nc2c(s1)CCCC2 > 76.9 µM
COc1cccc(C(=O)Nc2ccc(NC(C)=O)cn2)c1 > 76.9 µM
Cc1cc2c(N3CCCCC3C)ncnc2s1 (stereo not given) > 76.9 µM
CC(=O)Nc1cc(-c2nn(CC(=O)N3CCCCC3)c(=O)c3ccccc23)ccc1N1CCOCC1 > 76.9 µM
Cc1ccc2c(C(=O)CN3CCN(C4CCCCC4)CC3)c(C)[nH]c2c1 > 76.9 µM
CN(C)c1ccc(N/C=C/C(=O)c2ccccc2)cc1 > 76.9 µM
COc1cc2c(cc1OC)C(C(=O)N1CCOCC1)C(c1cccs1)N(C)C2=O (stereo not given) > 76.9 µM
COc1ccc(NC(=O)C2(N(CC(C)C)C(=O)Cn3nnnc3N)CCCCC2)cc1 > 76.9 µM
CC(C)C(NC(=O)c1cccs1)c1nnc(SCC(=O)Nc2nccs2)n1C (stereo not given) > 76.9 µM
NC(=O)c1c(NC(=O)COC(=O)CSc2nnc(-c3ccc(Cl)cc3)o2)sc2c1CCC2 > 76.9 µM
COC(=O)CCc1c(C)c(C(=O)c2ccco2)c2ccccn12 > 76.9 µM
Cn1c(-c2ccccc2)c(CCO)c2ccccc21 > 76.9 µM
O=C(c1ccccc1)N1CCN(c2ccccc2F)CC1 > 76.9 µM
CCCCC(c1nnnn1CC1CCCO1)N1CCN(c2nc3ccccc3s2)CC1 (stereo not given) > 76.9 µM
Cc1cccc(N2CCN(C(=O)C3CCCN(S(=O)(=O)c4cnc[nH]4)C3)CC2C)c1 (stereo not given) > 76.9 µM
Cc1ccc(-n2c(Cc3cccn3C)nnc2SCC(=O)NCc2ccco2)cc1 > 76.9 µM
CC1CN(c2nc3c(c(=O)n(Cc4ccc(Cl)c(Cl)c4)c(=O)n3C)n2C)CC(C)O1 (stereo not given) > 76.9 µM
C=CCSc1nncn1/N=C/c1ccc(OC)cc1 > 76.9 µM
Cc1cccc(N2CC(C)Cn3c2nc2c3c(=O)n(CC(=O)OCc3ccccc3)c(=O)n2C)c1 (stereo not given) > 76.9 µM
NC(=O)c1cc(-c2ccccc2)nc(N2CCCCCC2)n1 > 76.9 µM
Fc1ccc(CNc2ccc(CNc3ncn[nH]3)cc2)cc1 > 76.9 µM
COCCn1c(=O)[nH]c2cc(C(=O)NCCN3CCN(c4ccccc4)CC3)ccc2c1=O > 76.9 µM
Cc1nnc(SCc2ccccc2Cl)n1CC1CCCO1 (stereo not given) > 76.9 µM
O=C(CSc1ccc(-c2ccc(F)cc2)nn1)N1CCCCC1 > 76.9 µM
O=C(NCc1cccnc1)Nc1cccc(NC(=O)NCc2cccnc2)c1 > 76.9 µM
COc1cccc(C2=NOC(C(=O)Nc3ccc(OC)c(OC)c3)C2)c1 (stereo not given) > 76.9 µM
Oc1ccc(-c2[nH]ncc2-c2cccc3cccnc23)c(O)c1 > 76.9 µM
CCOC(=O)CCNC(=O)c1ccccc1Br > 76.9 µM
COc1cc(-c2nnc(CSc3nc4ccccc4s3)o2)cc(OC)c1OC > 76.9 µM
O=C(CCSc1nnnn1-c1ccccc1)N1CCOCC1 > 76.9 µM
Cc1ccc(C(=O)CSc2nc3ccccc3c(=O)n2N)o1 > 76.9 µM
CCN(CC(=O)Nc1ccccc1C(=O)OC)S(=O)(=O)c1ccc(OC)cc1 > 76.9 µM
O=C(Nc1ccc2c(c1)OCO2)C1CCN(Cc2cnn(-c3ccccc3)c2-n2cccc2)CC1 > 76.9 µM
O=C(CCCn1c(=O)c2sccc2n(CC(=O)OCc2ccccc2)c1=O)NCc1ccco1
COC(=O)c1cc(CC(=O)c2ccc(O)cc2O)c(C)o1 > 76.9 µM
O=C(CCn1[nH]c(=O)c2ccccc2c1=O)OC1CCCCC1 > 76.9 µM
CCC1(CC)Nc2ccccc2C(=O)N1c1ccc(NC(C)=O)cc1 > 76.9 µM
O=c1[nH]c(CN2CCN(Cc3ccc4c(c3)OCO4)CC2)nc2ccccc12 > 76.9 µM
c1csc(CSc2nc3ccccc3s2)c1 > 76.9 µM
Cc1ccc(O)c(NC(=O)c2cccc(S(=O)(=O)N3CCCCC3)c2)c1 > 76.9 µM
COc1ccc(S(=O)(=O)N(CCCN2CCCC2=O)Cc2cc3cc(C)c(C)cc3[nH]c2=O)cc1 > 76.9 µM
Fc1ccc(CN2CCSCC2)cc1Br > 76.9 µM
Cc1cc(S(=O)(=O)N(Cc2ccc3c(c2)OCO3)CC2CCCO2)ccc1-n1cnnn1 (stereo not given) > 76.9 µM
CCCCNC(=O)CCCCCNS(=O)(=O)c1ccc(OC)cc1 > 76.9 µM
CCCSC1=C(C#N)C(c2ccccc2OCC)CC(=O)N1 (stereo not given) > 76.9 µM
COc1ccc(CC(=O)Nc2nc(C)cs2)cc1OC > 76.9 µM
Cc1c(OC(=O)CNC(=O)OC(C)(C)C)ccc2c3c(c(=O)oc12)CCC3 > 76.9 µM
Cc1cc2c(c(C)nn2-c2ccccc2)c(=O)o1 > 76.9 µM
Cn1c(=O)c2c(nc(CN3CCOCC3)n2CCc2ccccc2)n(C)c1=O > 76.9 µM
CCOC(=O)c1cc(OCC(=O)NC(C)C(C)C)cc(C(=O)OCC)c1 (stereo not given) > 76.9 µM
CC(C)C(NS(=O)(=O)c1cccs1)C(=O)NCCN1CCN(c2ccccc2)CC1 (stereo not given) > 76.9 µM
N#CCSc1nc2cc(C(=O)N3CCCC3)ccc2c(=O)n1Cc1ccccc1 > 76.9 µM
CC1CC(C)CN(C(=O)COC(=O)c2cc3ccccc3cc2O)C1 (stereo not given) > 76.9 µM
COc1cc(OC)c(C(=O)Nc2ccc(S(=O)(=O)Nc3ncccn3)cc2)cc1OC > 76.9 µM
O=C(Nc1ccc2c(c1)OCO2)C1CCN(C(=O)CSc2ncnc3ccccc23)CC1 > 76.9 µM
CCC(=O)N(Cc1cc(=O)[nH]c2ccccc12)c1cccc(C)c1 > 76.9 µM
Cc1nnc2ccc(N3CCCC3)nn12 > 76.9 µM
Cc1ccc(SCCNS(C)(=O)=O)cc1 > 76.9 µM
Cn1c(=O)cc(SCC(=O)NCc2cccnc2)c2ccccc21 > 76.9 µM
Cc1ccc(N(C(=O)CCC(=O)Nc2cc(C)on2)C(C(=O)NC2CCCC2)c2ccncc2)cc1 (stereo not given) > 15.4 µM
CC(NC(=O)c1cccs1)c1ccc2c(c1)OCO2 (stereo not given) > 76.9 µM
COc1ccc(N2C(=O)CSC23C(=O)Nc2ccccc23)cc1OC (stereo not given) > 76.9 µM
O=C(CSc1nnc(-c2ccc(OC(F)F)cc2)o1)NC(=O)NCc1ccco1 > 76.9 µM
CCNC(=O)c1c(C)[nH]c(C(=O)OCC)c1C > 76.9 µM
COCCn1c(CN2CCN(c3ccc(OC)cc3)CC2)nc2c1c(=O)n(C)c(=O)n2C > 76.9 µM
CCOC(=O)c1ccc(NC(=O)CSc2nnc(CNc3ccc(OC)cc3)n2C)cc1 > 15.4 µM
Cc1cc(C)n(C(C)n2nc(C)cc2C)n1 > 76.9 µM
CN=C(Nc1cc(C)nn1CCC#N)c1ccccc1 > 76.9 µM
Cc1cc2cc(CN(CCCO)S(=O)(=O)c3cccc4nsnc34)c(=O)[nH]c2cc1C > 76.9 µM
Cc1ccc(N2CCN(C(=S)c3ccc(N(C)C)cc3)CC2)cc1 > 76.9 µM

Source: PubChem BioAssay AID360 (National Center for Advancing Translational Sciences (NCATS), 2006)
